Some test systems named below: A101D; A2058; A375.
Assay in all cases: cell count relative to DMSO control; melanoma cells; higher = more viable cells
Common to all, as to conditions: library dose: standard library concentration; 72 h

This is one part of the list. Many values rest on one well or one pass, so single values are uncertain.
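Further: cells treated in 1,536-well plates, then fixed and DAPI-stained, with nuclei counted from automated high-throughput microscope images.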

Regarding `Nc1nc(F)nc2c1ncn2[C@@H]1O[C@H](CO)[C@@H](O)[C@@H]1O` [fludarabine] + O=C(CCCCCCC(=O)Nc1ccccc1)NO [vorinostat] (first compound 1 µM, partner dose 0.4 µM), the cell count with A101D came to 65.5%; with A2058, 70%; with A375, 23%.

Regarding `Nc1nc(F)nc2c1ncn2[C@@H]1O[C@H](CO)[C@@H](O)[C@@H]1O` [fludarabine] + CC1(C)NC(=O)N(c2ccc([N+](=O)[O-])c(C(F)(F)F)c2)C1=O [nilutamide] (first compound 1 µM, partner dose 5 µM), the cell count in the assay on A101D was determined as 90.1%; with A2058 it was 72.4%; in the assay on A375, 40.3%.

For `Nc1ncn([C@H]2C[C@H](O)[C@@H](CO)O2)c(=O)n1` [decitabine] + O=C(CCCCCCC(=O)Nc1ccccc1)NO [vorinostat] (first compound 0.5 µM, partner dose 0.4 µM), the cell count in the assay with A101D is 68.6%; in the assay with A2058, 74.4%; in the assay with A375 it was 111%.

In the case of `CC(=O)O[C@@]12CO[C@@H]1C[C@H](O)[C@@]1(C)C(=O)[C@H](O)C3=C(C)[C@@H](OC(=O)[C@H](O)[C@@H](NC(=O)OC(C)(C)C)c4ccccc4)C[C@@](O)([C@@H](OC(=O)c4ccccc4)[C@H]21)C3(C)C` [Docetaxel] + C[C@@H](Oc1cc(-c2cnn(C3CCNCC3)c2)cnc1N)c1c(Cl)ccc(F)c1Cl [Crizotinib] (first compound 0.0005 µM, partner dose 1 µM), the cell count in the assay with A101D is 65.8%; with A2058, 7.99%; in the assay on A375 it was 60.2%.

`CC(=O)c1c(C)c2cnc(Nc3ccc(N4CCNCC4)cn3)nc2n(C2CCCC2)c1=O` [palbociclib] + Cc1cc(N2CCOCC2)cc2[nH]c(-c3c(NC[C@@H](O)c4cccc(Cl)c4)cc[nH]c3=O)nc12 [BMS536924] (first compound 0.2 µM, partner dose 1 µM): the cell count in the assay with A101D is 55.3%; with A2058, 84.6%; with A375 it was 61.5%.

For the compound `CC(=O)c1c(C)c2cnc(Nc3ccc(N4CCNCC4)cn3)nc2n(C2CCCC2)c1=O` [palbociclib] + O=S(=O)(c1ccccc1)N(CC(F)(F)F)c1ccc(C(O)(C(F)(F)F)C(F)(F)F)cc1 [T0901317] (first compound 0.2 µM, partner dose 7 µM), the cell count came out at 73.5% in the assay on A101D, 108% in the assay with A2058 and 72.2% in the assay on A375.

Consider `CO[C@H]1C[C@@H]2CC[C@@H](C)[C@@](O)(O2)C(=O)C(=O)N2CCCC[C@H]2C(=O)O[C@H]([C@H](C)C[C@@H]2CC[C@@H](OCCO)[C@H](OC)C2)CC(=O)[C@H](C)/C=C(\C)[C@@H](O)[C@@H](OC)C(=O)[C@H](C)C[C@H](C)/C=C/C=C/C=C/1C` [everolimus] + Nc1ccn([C@@H]2O[C@H](CO)[C@@H](O)C2(F)F)c(=O)n1 [gemcitabine] (first compound 0.1 µM, partner dose 0.002 µM), for which the results for the cell count in the assay on A101D, with A2058 and in the assay with A375 were 70.8%, 35.3% and 81.2%, respectively.

`Nc1nc(F)nc2c1ncn2[C@@H]1O[C@H](CO)[C@@H](O)[C@@H]1O` [fludarabine] + Cc1cc(N2CCOCC2)cc2[nH]c(-c3c(NC[C@@H](O)c4cccc(Cl)c4)cc[nH]c3=O)nc12 [BMS536924] (first compound 1 µM, partner dose 1 µM): the values for the cell count in the assay on A101D, with A2058 and in the assay with A375 were 106%, 79.3% and 27%, respectively.

Take `CC(=O)O[C@@]12CO[C@@H]1C[C@H](O)[C@@]1(C)C(=O)[C@H](O)C3=C(C)[C@@H](OC(=O)[C@H](O)[C@@H](NC(=O)OC(C)(C)C)c4ccccc4)C[C@@](O)([C@@H](OC(=O)c4ccccc4)[C@H]21)C3(C)C` [Docetaxel] + CCCS(=O)(=O)Nc1ccc(F)c(C(=O)c2c[nH]c3ncc(Cl)cc23)c1F [PLX4720] (first compound 0.0005 µM, partner dose 0.4 µM): the cell count was 58% in the assay with A101D, 14.5% in the assay with A2058 and 88% in the assay on A375.

In the case of `Nc1ncn([C@H]2C[C@H](O)[C@@H](CO)O2)c(=O)n1` [decitabine] + Cc1ccc(NC(=O)c2cccc(N(C)C)c2)cc1NC(=O)c1ccc(O)cc1 [ZM336372] (first compound 0.5 µM, partner dose 10 µM), the cell count was 85.5% with A101D, 66.9% in the assay on A2058 and 101% with A375.

Take `CC(=O)O[C@@]12CO[C@@H]1C[C@H](O)[C@@]1(C)C(=O)[C@H](O)C3=C(C)[C@@H](OC(=O)[C@H](O)[C@@H](NC(=O)OC(C)(C)C)c4ccccc4)C[C@@](O)([C@@H](OC(=O)c4ccccc4)[C@H]21)C3(C)C` [Docetaxel] + COCC[n+]1c2c(n(Cc3cnccn3)c1C)C(=O)c1ccccc1C2=O [YM155] (first compound 0.0005 µM, partner dose 0.002 µM): the cell count was 45.4% in the assay on A101D, 11.2% with A2058 and 60.9% in the assay with A375.

For the compound `Nc1ncn([C@H]2C[C@H](O)[C@@H](CO)O2)c(=O)n1` [decitabine] + OCc1c[nH]c2ccccc12 [Indole-3-carbinol] (first compound 0.5 µM, partner dose 4 µM), the cell count came to 90.6% in the assay on A101D, 71.4% in the assay with A2058 and 105% with A375.

Consider `Nc1ncn([C@H]2C[C@H](O)[C@@H](CO)O2)c(=O)n1` [decitabine] + OCCn1cc(-c2cnc3nnn(Cc4ccc5ncccc5c4)c3n2)cn1 [PF04217903] (first compound 0.5 µM, partner dose 5 µM), for which the cell count is 79.3% with A101D, 73% with A2058 and 97.5% with A375.

As to `CC(=O)O[C@@]12CO[C@@H]1C[C@H](O)[C@@]1(C)C(=O)[C@H](O)C3=C(C)[C@@H](OC(=O)[C@H](O)[C@@H](NC(=O)OC(C)(C)C)c4ccccc4)C[C@@](O)([C@@H](OC(=O)c4ccccc4)[C@H]21)C3(C)C` [Docetaxel] + CC(C)C[C@H](NC(=O)[C@H](Cc1ccccc1)NC(=O)c1cnccn1)B(O)O [Bortezomib] (first compound 0.0005 µM, partner dose 0.005 µM), the cell count came to 24.9% in the assay with A101D, 10.9% in the assay on A2058 and 76.1% with A375.

As to `CO[C@H]1C[C@@H]2CC[C@@H](C)[C@@](O)(O2)C(=O)C(=O)N2CCCC[C@H]2C(=O)O[C@H]([C@H](C)C[C@@H]2CC[C@@H](OCCO)[C@H](OC)C2)CC(=O)[C@H](C)/C=C(\C)[C@@H](O)[C@@H](OC)C(=O)[C@H](C)C[C@H](C)/C=C/C=C/C=C/1C` [everolimus] + C#Cc1cccc(Nc2ncnc3cc(OCCOC)c(OCCOC)cc23)c1 [erlotinib] (first compound 0.1 µM, partner dose 4 µM), the cell count in the assay on A101D stood at 77.7%; with A2058, 52.6%; in the assay with A375 it was 96.5%.

For `CC(=O)c1c(C)c2cnc(Nc3ccc(N4CCNCC4)cn3)nc2n(C2CCCC2)c1=O` [palbociclib] + O=C(CCCCCCC(=O)Nc1ccccc1)NO [vorinostat] (first compound 0.2 µM, partner dose 0.4 µM), the cell count is 62.1% in the assay on A101D, 92.8% in the assay with A2058 and 82.9% in the assay on A375.

Take `CC(=O)O[C@@]12CO[C@@H]1C[C@H](O)[C@@]1(C)C(=O)[C@H](O)C3=C(C)[C@@H](OC(=O)[C@H](O)[C@@H](NC(=O)OC(C)(C)C)c4ccccc4)C[C@@](O)([C@@H](OC(=O)c4ccccc4)[C@H]21)C3(C)C` [Docetaxel] + Cc1cc([N+](=O)[O-])ccc1NS(=O)(=O)c1cc(Cl)ccc1Cl [FH535] (first compound 0.0005 µM, partner dose 5 µM): the cell count in the assay with A101D came out at 44.5%; in the assay with A2058, 9.64%; in the assay with A375, 84.8%.

Consider `CO[C@H]1C[C@@H]2CC[C@@H](C)[C@@](O)(O2)C(=O)C(=O)N2CCCC[C@H]2C(=O)O[C@H]([C@H](C)C[C@@H]2CC[C@@H](OCCO)[C@H](OC)C2)CC(=O)[C@H](C)/C=C(\C)[C@@H](O)[C@@H](OC)C(=O)[C@H](C)C[C@H](C)/C=C/C=C/C=C/1C` [everolimus] + CO[C@@H]1[C@H](N(C)C(=O)c2ccccc2)C[C@H]2O[C@]1(C)n1c3ccccc3c3c4c(c5c6ccccc6n2c5c31)C(=O)NC4 [Midostaurin] (first compound 0.1 µM, partner dose 0.4 µM), for which the cell count stood at 63.4% in the assay with A101D, 45% in the assay on A2058 and 70.8% in the assay with A375.

With `CO[C@H]1C[C@@H]2CC[C@@H](C)[C@@](O)(O2)C(=O)C(=O)N2CCCC[C@H]2C(=O)O[C@H]([C@H](C)C[C@@H]2CC[C@@H](OCCO)[C@H](OC)C2)CC(=O)[C@H](C)/C=C(\C)[C@@H](O)[C@@H](OC)C(=O)[C@H](C)C[C@H](C)/C=C/C=C/C=C/1C` [everolimus] + CC1(C)NC(=O)N(c2ccc([N+](=O)[O-])c(C(F)(F)F)c2)C1=O [nilutamide] (first compound 0.1 µM, partner dose 5 µM), the cell count in the assay on A101D worked out at 84.4%; in the assay with A2058, 73.7%; in the assay with A375 it was 99.2%.

In the case of `Nc1nc(F)nc2c1ncn2[C@@H]1O[C@H](CO)[C@@H](O)[C@@H]1O` [fludarabine] + Cn1cncc1[C@@](N)(c1ccc(Cl)cc1)c1ccc2c(c1)c(-c1cccc(Cl)c1)cc(=O)n2C [tipifarnib] (first compound 1 µM, partner dose 0.05 µM), the cell count in the assay on A101D amounted to 67.2%; with A2058, 68%; with A375 it was 30.7%.

As to `CC(=O)O[C@@]12CO[C@@H]1C[C@H](O)[C@@]1(C)C(=O)[C@H](O)C3=C(C)[C@@H](OC(=O)[C@H](O)[C@@H](NC(=O)OC(C)(C)C)c4ccccc4)C[C@@](O)([C@@H](OC(=O)c4ccccc4)[C@H]21)C3(C)C` [Docetaxel] + Cc1nc(Nc2ncc(C(=O)Nc3c(C)cccc3Cl)s2)cc(N2CCN(CCO)CC2)n1 [dasatanib] (first compound 0.0005 µM, partner dose 0.02 µM), the cell count worked out at 34.9% in the assay with A101D, 9.49% with A2058 and 78.8% with A375.

With `CO[C@H]1C[C@@H]2CC[C@@H](C)[C@@](O)(O2)C(=O)C(=O)N2CCCC[C@H]2C(=O)O[C@H]([C@H](C)C[C@@H]2CC[C@@H](OCCO)[C@H](OC)C2)CC(=O)[C@H](C)/C=C(\C)[C@@H](O)[C@@H](OC)C(=O)[C@H](C)C[C@H](C)/C=C/C=C/C=C/1C` [everolimus] + C=C(c1ccc(C(=O)O)cc1)c1cc2c(cc1C)C(C)(C)CCC2(C)C [Bexarotene] (first compound 0.1 µM, partner dose 10 µM), the cell count in the assay on A101D was found to be 74.1%; with A2058, 56.5%; in the assay with A375, 91.7%.

These data come from the supplement of paper PMC4604168 (melanoma cell lines).
